The source of these data is PubChem BioAssay AID1346428 (National Center for Advancing Translational Sciences (NCATS), 2018).

Each structure is given as a SMILES string. Screen size: about 48,000 compounds; about 1,200 (2.5%) were called active. Not shown: some 2% with an inconclusive outcome.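 Rule for the calls: active = activation of at least 60% and not above a set upper limit (about 1 call in 100 departs from these limits); inconclusive = activation of 40% to 60%, or above that upper limit; inactive = activation under 40%.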 The list shows a part of the results.

This test addresses Probable G-protein coupled receptor 32 (Homo sapiens) (UniProt O75388). In words: qHTS for Agonists of Human Resolvin D1 Receptor DRV1. Note: 0% is about no effect. As to conditions: CHO-K1 GPR32 beta-arrestin PathHunter luminescence, 90 min; at 76.9 µM; hits give high values; zero percent set by DMSO-only wells. The gist of the method: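 Readings come from a cell-based beta-arrestin complementation format: CHO-K1 GPR32 stable cells (2,500/well) treated 90 min with compounds, then beta-Gal substrate added for 1 h before chemiluminescence imaging.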
Chain of UniProt O75388 (O75388 whole entry, looked up): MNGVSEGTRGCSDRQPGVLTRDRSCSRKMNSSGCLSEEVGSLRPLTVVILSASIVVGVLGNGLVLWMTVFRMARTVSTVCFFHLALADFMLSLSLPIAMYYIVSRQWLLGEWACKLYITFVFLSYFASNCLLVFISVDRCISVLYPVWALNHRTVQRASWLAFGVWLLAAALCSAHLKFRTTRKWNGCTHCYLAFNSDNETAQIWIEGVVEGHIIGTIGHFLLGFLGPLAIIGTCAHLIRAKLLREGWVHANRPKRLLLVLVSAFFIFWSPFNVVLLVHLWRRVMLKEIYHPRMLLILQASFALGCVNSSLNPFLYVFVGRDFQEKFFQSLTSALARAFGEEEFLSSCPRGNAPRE
In the case of `CC(C)(C)OC(=O)N1CCC(N2CCN(Cc3ccccc3)C(=O)C2=O)CC1`, the activation was inactive: -3.63%.

On to `Cc1onc(-c2ccccc2Cl)c1C(=O)Oc1ccccc1F`, for which the activation is inactive: -10.7%.

For the compound `CN(C)S(=O)(=O)c1ccc2c(c1)N(CC(=O)Nc1cccc(C(F)(F)F)c1)C(=O)CS2`, the activation was inactive: -0.249%.

With `Cc1c(CNC(C)CCc2ccccc2)c(C(=O)O)c(C)n1Cc1ccc(F)cc1` (centres undefined), the activation is inactive: -9.64%.

Turning to `CC(C)c1ccc(OCC(=O)Nc2cc(-c3ccccc3)no2)cc1`, the activation is inactive: 33.7%.

As for `Cc1cc(C)cc(NC(=O)Cn2nc(N3CCN(c4ccccc4)CC3)ccc2=O)c1`, the activation was inactive: -9.2%.

`CC(=O)c1c(C)n(S(=O)(=O)c2ccc(Cl)cc2)c2ccc(NS(=O)(=O)c3ccc(Cl)cc3)cc12`: the activation is inactive: -8.39%.

For `COc1cc(CN(C(=O)c2ccccc2Br)c2ccccn2)cc(OC)c1OC`, the activation was inactive: -0.591%.

In the case of `COc1ccc(S(=O)(=O)NCCc2sc(-c3cccnc3)nc2C)cc1OC`, the activation was inactive: -3.59%.

`COc1ccc2c(c1)c(=O)c(S(=O)(=O)c1ccc(Cl)cc1)cn2Cc1cc(C)ccc1C`: the activation was inactive: -13.7%.

As to `Cc1ccc(NC(=O)CN2C(=O)C(c3ccc(C)cc3)=NC23CCCCCC3)cc1`, the activation was inactive: -15.4%.

As for `Cc1ccc(C)c(N2CCN(C(=O)CCS(=O)(=O)c3ccc4c(c3)oc(=O)n4C)CC2)c1`, the activation is inactive: 2.38%.

`CCN(CC)C(=O)c1sc2c(c1C)c(=O)n(CCc1ccccc1)c(=O)n2Cc1ccc(C)cc1`: the activation is inactive: -18.3%.

Consider `CCOc1cc2c(cc1OCC)C(CC(=O)OC)N(C(=O)Nc1cc(OC)ccc1OC)CC2` (centres undefined), for which the activation is inactive: -11.2%.

With `CCOC(=O)c1ccc(N)cc1`, the activation was inactive: -6.29%.

Consider `CCCCNC(=O)c1cc(-c2cccnc2)nc2ccc(S(=O)(=O)NCCCC)cc12`, for which the activation was inactive: -5.53%.

On to `CCN1CCSc2ccc(C(=O)NCc3ccc(F)cc3)cc21`, for which the activation was inactive: 4.06%.

For `Cc1ccc(CNC(=O)CCSCc2cnn(-c3ccccc3)c2-n2cccc2)cc1`, the activation was inactive: -9.2%.

For `COc1ccc(CNC(=O)Cn2ncc3c(=O)oc4ccccc4c32)c(OC)c1`, the activation was inactive: 0.0161%.

`O=C(Cn1ncc2c3ccccc3n(Cc3ccccc3F)c2c1=O)N1CCCCCC1`: the activation is inactive: -13.7%.

For `CCN1CCN(c2nnc(-n3cccc3C(=O)NCc3ccccc3OC)s2)CC1`, the activation was inactive: 6.24%.

As to `Cc1ccc(NC(=O)N2CC3CCCN3c3ccccc32)cc1Cl` (centres undefined), the activation is inactive: 8.63%.

On to `O=C(c1noc2c1CCCCC2)N1CCN(c2cccc(Cl)c2)CC1`, for which the activation was inactive: -21.5%.

For the compound `Cc1ccccc1OC(=O)c1cc(-c2ccc3c(c2)OCCO3)on1`, the activation is inactive: -6.59%.

In the case of `COc1ccc(NC(=O)C2CCN(C3=NS(=O)(=O)C(c4ccc(C)c(C)c4)=C3C)CC2)c(OC)c1`, the activation was inactive: -13%.

Consider `Cc1ccc(C)c(NC(=O)Cc2coc3cc(C)cc(C)c23)c1`, for which the activation is inactive: 3.63%.

`COc1cccc(CNC(=O)C2CCN(S(=O)(=O)c3c(C)noc3/C=C/c3cccs3)CC2)c1`: the activation was inactive: -30.8%.

`O=C(NCCc1csc(-c2cccc(F)c2)n1)C(=O)Nc1cc(F)ccc1F`: the activation was inactive: -2.93%.

In the case of `C=CCn1c(=O)c2c(nc(-c3ccc(S(=O)(=O)O)cc3)n2C)n(C)c1=O`, the activation is inactive: -6.21%.

`COc1ccc(C)cc1NS(=O)(=O)c1cnc(N)nc1`: the activation was inactive: -12.3%.

In the case of `O=C(c1cc2ccc3cccnc3c2[nH]1)N1CCCCC1`, the activation is inactive: -15.5%.

For the compound `CCc1ccccc1NC(=O)Cn1nnc2sc3c(c2c1=O)CCC(C(C)(C)C)C3` (centres undefined), the activation is inactive: 2.6%.

For the compound `CCOC(=O)c1cc2c(=O)n3ccccc3nc2n(CC2CCCO2)c1=NC(=O)c1ccccc1Br` (centres undefined), the activation is inactive: 11.9%.

`CCOC(=O)c1sc2ncn(CC(=O)Nc3cc(Cl)ccc3C)c(=O)c2c1C`: the activation is inactive: -8.94%.

Turning to `CC(=O)Nc1cccc(NC(=O)CSc2nccn2Cc2ccc3c(c2)OCO3)c1`, the activation is inactive: -8.73%.

Regarding `CC(=O)c1ccc(N2CCN(C(=O)c3cc(S(=O)(=O)N4CCCCCC4)cn3C)CC2)cc1`, the activation is inactive: 4.56%.

Regarding `Cc1cccc(NC(=O)CSc2ccc(-c3sc(-c4ccccc4)nc3C)nn2)c1C`, the activation is inactive: -11.9%.

For the compound `Cc1cc(C(=O)Nc2c(C)cccc2C)n(-c2ccccc2)n1`, the activation was inactive: -16.5%.

Take `CC(C)CCN(C(=O)Nc1ccc(Cl)c(Cl)c1)C1CCN(C(C)C)CC1`: the activation was inactive: -19.7%.

For the compound `O=C(OCc1cc(=O)n2nc(-c3cccs3)sc2n1)c1cccc(F)c1`, the activation is inactive: 0.848%.

As for `COCCCNC(=O)c1ccc(Cn2c(SCc3ccc(F)cc3)nc3cccnc32)cc1`, the activation was inactive: -7.72%.

`COc1ccc(CCNc2nc3c(-c4cccc(C(F)(F)F)c4)nnn3c3ccccc23)cc1OC`: the activation was inactive: -4.51%.

Turning to `Cc1ccc(CN2CCCn3nc(C(=O)NCc4ccc(N(C)C)cc4)cc3C2=O)cc1`, the activation is inactive: -5.07%.

In the case of `Clc1ccc(-c2cc3ncc4c(n3n2)-c2ccccc2OC4)cc1`, the activation was inactive: -6.55%.

For `O=C(Nc1ccccc1-c1nc2ccccc2s1)c1ccc(F)cc1`, the activation was inactive: -0.627%.

As to `CC1CCN(c2nc(-c3ccc(C(C)(C)C)cc3)nc3ccccc23)CC1`, the activation was inactive: 4.31%.

For the compound `O=C(CSc1nc2ccsc2c(=O)n1-c1ccc(Cl)cc1)NCc1ccc(Cl)cc1`, the activation was inactive: -0.935%.

For `CC(C)CNC(=O)Nc1cc(C(=O)NCc2ccc(C(C)C)cc2)ccc1N1CCCC1`, the activation was inactive: -32.5%.

For `CCOc1ccc(NC(=O)c2cc3cc(C)ccc3n2C)cc1`, the activation is inactive: 9.88%.

With `CCOc1ccc(NC(=O)c2oc3ccccc3c2NC(=O)C(C)(C)C)cc1`, the activation is inactive: -31.8%.

On to `COc1ccccc1NC(=O)CSc1oc(-c2ccco2)nc1S(=O)(=O)c1ccc(C)cc1`, for which the activation is inactive: -21.1%.

As to `COc1ccc(CCNC(=O)c2c(O)nc3ccccn3c2=O)cc1OC`, the activation is inactive: -5.36%.

On to `O=C(CC1N=C2c3ccccc3N=C(SCC(=O)Nc3ccc(F)cc3)N2C1=O)NCc1ccco1` (centres undefined), for which the activation is inactive: -13.7%.

For the compound `CCOc1ccc2nc(N3CCCC(C(=O)Nc4ccc(OC)cc4)C3)sc2c1` (centres undefined), the activation was inactive: -5.12%.
